From the supplement of paper PMC3694890
± gives the uncertainty stated by the source. Some of the results follow. A small y stands for phosphotyrosine.

The binders below were run against GRB2 (endogenous complexes from cell lysate), P62993 (assay: GRB2 complex binding differential signal (pY peptide minus Ala control peptide) (fluorescence intensity units); higher = stronger GRB2 complex binding). Conditions: MCF7.
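Also: phosphopeptide probes on the chip at 1–4 µM, lysate proteins bound in 20 mM Tris pH 7.0 buffer with 140 mM NaCl, 1% Triton X-100 and 5% glycerol.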

Binder	GRB2 complex binding differential signal
yVPSAP [PDGFRB_778/A1]	1280 ± 590
yVPMLD [PDGFRB_751/A1]	-2190 ± 1700
ySLEQR [PKN2_273/A1]	1920 ± 260
yDNYVP [PDGFRB_775/A1]	785 ± 240
yMDMSK [PDGFRB_740/A1]	666 ± 230
yKPDTP [PKN2_624/A1]	3420 ± 550
yRQGRI [AXL_703/A1]	713 ± 430
yQQVDE [PDGFRB_970/A1]	1550 ± 460
yISKGS [PDGFRB_857/A1]	1170 ± 820
yGDLVD [PDGFRB_686/A1]	77.4 ± 590
yALMSR [AXL_779/A1]	1730 ± 560
ySNALP [PDGFRB_716/A1]	15900 ± 2100
yMAPYD [PDGFRB_771/A1]	3830 ± 1600
ySGIQE [PKN2_635/A1]	924 ± 190
yADIES [PDGFRB_763/A1]	225 ± 160
yEIMQK [PDGFRB_934/A1]	991 ± 500
yLHRNK [PDGFRB_692/A1]	235 ± 130

Same assay, conditions: MCF10A

Binder	GRB2 complex binding differential signal
yVPSAP [PDGFRB_778/A1]	1650 ± 780
yVPMLD [PDGFRB_751/A1]	319 ± 260
ySLEQR [PKN2_273/A1]	600 ± 700
yDNYVP [PDGFRB_775/A1]	941 ± 300
yMDMSK [PDGFRB_740/A1]	800 ± 230
yKPDTP [PKN2_624/A1]	2250 ± 610
yRQGRI [AXL_703/A1]	720 ± 340
yQQVDE [PDGFRB_970/A1]	1310 ± 200
yISKGS [PDGFRB_857/A1]	2330 ± 500
yGDLVD [PDGFRB_686/A1]	-348 ± 650
yALMSR [AXL_779/A1]	533 ± 200
ySNALP [PDGFRB_716/A1]	9840 ± 2100
yMAPYD [PDGFRB_771/A1]	1360 ± 530
ySGIQE [PKN2_635/A1]	681 ± 230
yADIES [PDGFRB_763/A1]	126 ± 170
yEIMQK [PDGFRB_934/A1]	906 ± 180
yLHRNK [PDGFRB_692/A1]	195 ± 320

Same assay, conditions: MDA-MB-231

Binder	GRB2 complex binding differential signal
yVPSAP [PDGFRB_778/A1]	957 ± 420
yVPMLD [PDGFRB_751/A1]	1010 ± 490
ySLEQR [PKN2_273/A1]	478 ± 280
yDNYVP [PDGFRB_775/A1]	1290 ± 530
yMDMSK [PDGFRB_740/A1]	916 ± 330
yKPDTP [PKN2_624/A1]	664 ± 280
yRQGRI [AXL_703/A1]	319 ± 270
yQQVDE [PDGFRB_970/A1]	311 ± 260
yISKGS [PDGFRB_857/A1]	1260 ± 410
yGDLVD [PDGFRB_686/A1]	333 ± 250
yALMSR [AXL_779/A1]	436 ± 390
ySNALP [PDGFRB_716/A1]	4440 ± 1000
yMAPYD [PDGFRB_771/A1]	1590 ± 590
ySGIQE [PKN2_635/A1]	1190 ± 360
yADIES [PDGFRB_763/A1]	457 ± 380
yEIMQK [PDGFRB_934/A1]	1140 ± 520
yLHRNK [PDGFRB_692/A1]	481 ± 320

Same assay, conditions: T47D

Binder	GRB2 complex binding differential signal
yVPSAP [PDGFRB_778/A1]	1750 ± 3400
yVPMLD [PDGFRB_751/A1]	1310 ± 1500
ySLEQR [PKN2_273/A1]	971 ± 1200
yDNYVP [PDGFRB_775/A1]	3470 ± 1200
yMDMSK [PDGFRB_740/A1]	1190 ± 1600
yKPDTP [PKN2_624/A1]	486 ± 1300
yRQGRI [AXL_703/A1]	282 ± 1600
yQQVDE [PDGFRB_970/A1]	251 ± 1300
yISKGS [PDGFRB_857/A1]	1930 ± 1200
yGDLVD [PDGFRB_686/A1]	434 ± 1000
yALMSR [AXL_779/A1]	1060 ± 900
ySNALP [PDGFRB_716/A1]	13800 ± 3300
yMAPYD [PDGFRB_771/A1]	1900 ± 1400
ySGIQE [PKN2_635/A1]	1950 ± 1100
yADIES [PDGFRB_763/A1]	403 ± 1200
yEIMQK [PDGFRB_934/A1]	1330 ± 2100
yLHRNK [PDGFRB_692/A1]	240 ± 960
